# Data published in the supplement of paper PMC11417369.
# The other results are listed elsewhere or left out.
# System: PfAP2-HC AP2 domain (GST-tagged)
# Experiment: gcPBM binding intensity (ln(normalized median fluorescence intensity)); higher = stronger DNA binding
# Method in brief: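 The highest Masliner-normalised natural-log median intensity across replicate spots of either probe orientation is reported as binding intensity. GST-tagged P. falciparum DNA-binding domains expressed in E. coli were applied for 1 h to an Agilent 4 × 180k array of primer-extended double-stranded 36-bp intergenic genomic probes plus negative controls, and bound protein was detected with Alexa488 anti-GST antibody and scanned at 488 nm.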
row,Sequence,gcPBM binding intensity (ln)
1,AACAATAAATTATTATGTACACATATATTATATATA [XGTACX_site4629],9.61
2,ATATTTTAAAATAATACACACAAAATGATTCTTAAT [CACACA_site2930],9.81
3,ATAAGTATTACTAGTACACACAAGTTGTTAATCCTT [CACACA_site3324],9.95
4,TATATTATATAATTTTAACACACAAGAATATAAACT [CACACA_site8378],9.76
5,ATTTATAAAATATAATTACATTTTTAAATAATAAAA [GTGCAC_negctrl_site43],9.18
6,TTACGATTTAAAATGGGTACATATATATGAAAAAAA [XGTACX_site545],9.32
7,CTTATGTGCATACCTACACACTTACCTATATTTATA [CACACA_site7411],9.94
8,ATATAATCTGAGTGCACACAAATAAATAAACATACA [CACACA_site422],10.4
9,TAAAAGGATGCATATACACACATATAGATTTATATA [CACACA_site7336],10.1
10,TTTTTTTTGTATTTTTCACACACACCGAAGTAAACA [CACACA_site8575],10.3
11,AGTTGCATACATTGAAGTACAGAACATTTATATATA [XGTACX_site240],9.67
12,TTTTTCCTTATTAATACACACATTCACCTTTTAAAT [CACACA_site479],9.91
13,GTATTTATGTGTTTGGTGCAAGGGAGAATTTTTTTT,9.87
14,TCAAAGTAAAACAGGACATGCACAGAACATCCTGCC [TGCATGCA_site2],9.67
15,AAAAAAAAAACATACACACACATATAGATTTATATG [CACACA_site6847],10.2
16,TAAAGAAAAATATAAAGTACAAAAATAAAAAAAATA [XGTACX_site8226],9.66
17,TACACAAAGTTACATACACACTAATATTTACACCAT [CACACA_site6602],10
18,GAGAGAGAAATATGCACACATAAGGGAAATAAATAA [CACACA_site1153],10.1
19,GAAAAAAAAAGTTAAGCACACACATGAATAAATAAT [CACACA_site8179],10.3

row,Sequence,gcPBM binding intensity (ln)
1,TTTTGATGCTTTAAATGTACAAGGGTTCTTATGAAA [XGTACX_site831],9.31
2,TGTATATAATTTATATGTACATATATTTTATTTTGT [XGTACX_site1905],9.66
3,AAAAAAAAAAAATAGAAAAAAAAATAAAATAAAAAA [CACACA_negctrl_site562],9.5
4,ATTATGCACGGACACACACACACACCCCTAAAAAAT [CACACA_site5426],11.4
5,TGTTAACCACAAAAATAAAATAAAATAAAAATAATA [XGTACX_negctrl_site535],9.52
6,TGATAAATATTATGTTGTACTTTCTGCCCTTCACAT [XGTACX_site5168],9.59
7,TTTCCCATAGGAAAAACACACATATATTATAGATAA [CACACA_site7019],9.57
8,TATGCTATTATATATGTACACACCAATTTATTTATA [CACACA_site3918],9.78
9,AAAACATATTTTAAAAGTACTTGAAAAAAAATTTTC [XGTACX_site3940],9.44
10,AAACCAAAAATAACACGTACAAAAATAAAAAGTATA [XGTACX_site4261],10.3
11,GAGAGAGAAATAAAAAGTACATACATATATATACAT [XGTACX_site2267],9.75
12,TGGAGATTTTTAAAGACACACAGGTAAGAATAATAA [CACACA_site1582],9.77
13,ACCATTTTTATGTATAAACACACGTACCCGCACTAA [CACACA_site1604],9.77
14,AAAAAAAACAGACACATACACACAAAAATGTTATAA [CACACA_site82],10.9
15,TTATACCTATATTTAACACACATTTGATAAAGTGCC [CACACA_site6732],9.66
16,AAAAAATTTGTTTATTGTACAGAAAGAATTATTATA [XGTACX_site6549],9.48
17,TTGTAGGTAAATATGTGTACGCATTATTATTCTTAA [XGTACX_site216],9.58
18,AATATAAACACAAACACACACATATAGATTTATATA [CACACA_site6263],10.3
19,CACAATGGTTTATATACACACTGTTGCAAATTCTTC [CACACA_site5659],9.7

row,Sequence,gcPBM binding intensity (ln)
1,AATATATAAATTGACACACACATATATACCTATATA [CACACA_site4803],10.5
2,ATTTTTTTATTTTTGTGTACTTATAAGAATATTAAT [XGTACX_site4850],9.58
3,AATGAATATATTTATTGTACATATATGAATATTGCA [XGTACX_site8689],9.61
4,AAAAAAAAAAAAAAAAGTACAAAAAGGAGAAAGATA [XGTACX_site7862],9.59
5,TATTTTTTATGATTAACACACACACTAATAAAAAAA [CACACA_site9370],10.1
6,TATATATATATATATAGTACGCACACATAGTTGCAA [XGTACX_site5875],9.84
7,ATTCTTACTAATATCGCACACACATATGTAGACGGG [CACACA_site88],9.94
8,AACAAGTTGCATGGTGCACACATGTATATATATCTA [CACACA_site2548],10.2
9,AAAATGTATGTAGTCTGTACAAATACTCTATAAATA [XGTACX_site6475],9.67
10,TACAATTTTACTCATAAACACACATATATATGTTAT [CACACA_site9031],9.86
11,ACCCAGTGTATTCATAGTACACGCTCATATATTATC [XGTACX_site423],9.76
12,AGGTTTATAAAAAAAAAAAAAAAAAAAAAAAAAAAA [GTGCAC_negctrl_site113],9.03
13,AATATTTAAAACATATGTACTGAAAAACAATTGGAC [XGTACX_site6360],10.1
14,CACAAAGGTCTGAAATTTTAGGGGTGCCTGGGACTA [CACACA_negctrl_site681],9.44
15,TCATAAAAGATTAAGTGTACATGTGCTACTCTTATA [XGTACX_site6255],9.56
16,AATATAAAATCAAGAAATTAAAAAAAAACAGAAAAC [CACACA_negctrl_site1004],9.78
17,ACAAGATAATAGAGAAGTACTAATAAACATACACAA [XGTACX_site6617],9.98
18,TATATATATATATGTGCACACCAATTGTATGTAATA [CACACA_site3888],9.94
19,ATTTTAAATTTATCTGTGCACAGTATTATATAAGCA [GTGCAC_site9806],9.56
